# Measured values reported in PubChem BioAssay AID493208 (National Center for Advancing Translational Sciences (NCATS), 2011).
# The whole screen tested about 44,000 compounds, of which about 340 (0.77%) were called active. This list was built around the results that the source calls inconclusive (neither active nor inactive); the mix of calls is not that of the screen. The call rests on the fitted dose curve; in most records, active means well fitted inhibition curve with a large enough effect; inconclusive means small, poorly fitted or top-dose-only effect; inactive means flat fitted curve, though single readings scatter. Potencies of inconclusive entries are left out as doubtful fits.
# Test: Acumen qHTS Assay for Inhibitors of the mTORC1 Signaling Pathway in MEF (Tsc2-/-, p53-/-) Cells: Sytravon; further: nearly all actives have a fitted effect of over 50% in size
# Conditions: phospho-rpS6 immunofluorescence/PI, 24 h; series mostly up to 38.3 µM
# Procedure, shortened: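 Tsc2-/-, p53-/- MEFs (empty-vector stable line) in DMEM + 10% FBS were treated with compounds 24 h at 37 degree Celsius, fixed, and immunostained for phospho-rpS6 (Alexa-488) with propidium iodide counterstain. Laser-scanning cytometry gave % positive cells, normalized against 7.5 nM rapamycin and DMSO.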
# Potency means the concentration at half of the fitted maximal effect; tags describe the fitted curve by direction and shape.
row,SMILES,Potency
1,Cc1ccc(C)c(NC(=O)CSc2cn(CC(=O)N3CCCC3)c3ccccc23)c1,"inconclusive [falling, single point]"
2,O=C(NCCc1csc(-c2cccnc2)n1)c1cccc(C(F)(F)F)c1,"inconclusive [falling, single point]"
3,COc1ccc(-c2nn(C)c3sc(C(=O)N4CCN(c5cccc(C)c5C)CC4)cc23)cc1OC,inactive
4,O=C(/C=C/c1cn(CC(O)CN2CCCCCC2)c2ccccc12)c1ccccc1 (stereo not given),"inconclusive [falling, single point]"
5,CCOc1cc(CNC(=O)c2ccc(NC(=O)c3nsc4ccccc34)cc2)ccc1OC,"inconclusive [falling, single point]"
6,CSc1ccccc1NC(=O)CCS(=O)(=O)c1nc(-c2cccs2)cc(C(F)(F)F)n1,"inconclusive [falling, single point]"
7,Cn1c(=O)c2cc(C(=O)NC3CCCCCC3)sc2c2ccccc21,"inconclusive [falling, partial curve, poor fit]"
8,CCn1c(=N)n(CC(O)COc2ccccc2)c2ccccc21 (stereo not given),inactive
9,COc1ccc2c(c1)-c1nc(NC(=O)c3cc(OC)c(OC)c(OC)c3)sc1CC2,"inconclusive [falling, partial curve, poor fit]"
10,Cc1cc(C)cc(Nc2nc3cc(Cl)c(Cl)cc3nc2-n2nc(C)cc2C)c1,inactive
11,Cc1ccc(-n2ncc(C(=O)NCCCN3CCc4ccccc4C3)c2C2CCN(C(=O)OC(C)(C)C)CC2)c(C)c1,active: 9.27 µM
12,CCN1CCC(N(Cc2ccc3c(c2)OCO3)C(=O)Nc2cc(F)ccc2F)CC1,inactive
13,Cc1c(C(=O)N2CCC(C)CC2)c(S(=O)(=O)N(Cc2ccccc2)C(C)(C)C)c(C)n1C,"inconclusive [falling, full curve, poor fit]"
14,Cn1nnnc1SCCCNCc1ccccc1OCc1ccc(Cl)cc1,active: 13.1 µM
15,Clc1ccc(-n2ncc3c(NC4CCCC4)ncnc32)cc1,"inconclusive [falling, single point]"
16,CCc1ccc(NC(=O)CSc2nnc3[nH]c(=O)cc(-c4ccccc4)n23)cc1,inactive
17,Cc1cccc(NC(=O)CSc2nc3ccc(NC(=O)COc4ccccc4C)cc3s2)c1,"inconclusive [falling, single point]"
18,Cc1ccc(S(=O)(=O)c2cnc(SCC(=O)Nc3cccc(Cl)c3)nc2N)cc1C,"inconclusive [falling, full curve, poor fit]"
19,CCN(CC)C(=O)Cn1cc(SCC(=O)Nc2cccc(F)c2)c2ccccc21,"inconclusive [falling, single point]"
20,Cc1ccc(C2c3c(-c4cc(C)ccc4O)n[nH]c3C(=O)N2Cc2ccco2)cc1 (stereo not given),"inconclusive [falling, single point]"

row,SMILES,Potency
1,Cc1ccc(-n2ncc(C(=O)NCCCN3CCCCC3)c2C2CCN(C(=O)OC(C)(C)C)CC2)c(C)c1,"inconclusive [falling, single point]"
2,COc1ccc(Cn2c(C(=O)O)c(CNCC(C)c3ccccc3)c3ccc(OC)cc32)cc1 (stereo not given),"inconclusive [falling, partial curve, poor fit]"
3,O=C(Nc1ccccc1F)c1nc(SCc2ccc(F)cc2)ncc1Cl,inactive
4,CCCN1C(=O)C(O)(CC(=O)c2ccc(OC)c(OC)c2)c2ccccc21 (stereo not given),"inconclusive [falling, partial curve, poor fit]"
5,O=C(Nc1ccc(C(F)(F)F)cc1)c1cc(S(=O)(=O)NC2CCCCC2)ccc1F,"inconclusive [falling, single point]"
6,CCc1ccc(NC(=O)c2ccc(F)c(S(=O)(=O)NC3CCCCCC3)c2)cc1,"inconclusive [falling, partial curve, poor fit]"
7,CCOC(=O)c1c(C)[nH]c(CCC(=O)NCCCN2CCN(c3cc(Cl)ccc3C)CC2)c1C,"inconclusive [falling, single point]"
8,Cc1ccccc1NC(=O)c1c(NC(=O)c2ccco2)sc2c1CCC(C(C)(C)C)C2 (stereo not given),"inconclusive [falling, full curve]"
9,CCOc1ccc(CCNC(=O)c2nc(-c3cccc(F)c3)n3c2CCCCC3)cc1OCC,"inconclusive [falling, partial curve, poor fit]"
10,Cc1cccc(N2CCN(C(=O)C3CCCN(S(=O)(=O)c4ccc(Br)s4)C3)CC2)c1C (stereo not given),"inconclusive [falling, partial curve, poor fit]"
11,COc1ccccc1NC(=O)CSc1nc2nccnc2c(=O)n1CCc1c[nH]c2ccccc12,inactive
12,CCN(CC)CCNC(=O)CSc1nc2nc(C)c(Cc3ccccc3)c(C)n2n1,inactive
13,CCOc1ccc(CCNC(=O)Cn2c(-c3cccs3)cc3cc(F)ccc32)cc1OCC,"inconclusive [falling, full curve, poor fit]"
14,CCCc1cc(N2CCN(c3ccccc3)CC2)n2cnnc2n1,"inconclusive [falling, single point]"
15,CCOc1ccccc1NC(=O)C1CCN(S(=O)(=O)c2cc(Br)cc3c2N(C(C)=O)CC3)CC1,"inconclusive [activator, full curve, poor fit]"
16,CS(=O)(=O)c1ncc(Cl)c(C(=O)Nc2c(C(=O)Nc3ccccc3)oc3ccccc23)n1,inactive
17,Cc1cccc(Nc2ncc(NC(=O)c3cccc(F)c3)c(Nc3cccc(C)c3)n2)c1,"inconclusive [falling, partial curve, poor fit]"
18,CCOc1cc(CNC(=O)c2ccccc2NC(=O)c2nsc3ccccc23)ccc1OC,"inconclusive [falling, single point]"
19,CC1CCCCN1CCCNC(=O)c1cc(Sc2cccc(Cl)c2)nc2ccccc12 (stereo not given),"inconclusive [falling, single point]"
20,CCn1c2ccccc2c2cc(CN3CCN(Cc4cc(OC)c(O)c(OC)c4)CC3)ccc21,"inconclusive [falling, single point]"
